# Test results from the supplement of paper PMC8728848.
# This excerpt belongs to a sample that is enriched for the strongest signals.
# How the values were obtained:
# Assay in all cases: glycan array binding signal (z-score within array); higher = stronger binding
# Conditions in all cases: glycan notation: IUPAC condensed, linker removed
# [1] = test system: Neu5Ac(a2-3)Gal(b1-3)GlcNAc(b1-3)GalNAc
# Outline: (§1)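 The binding signal is a Z-score computed within each array. Data were drawn from 3228 arrays in the Consortium for Functional Glycomics database, restricted to those with a known protein sequence. Scores were averaged over arrays of the same protein sequence at different concentrations or buffers, and over linkers, and negative values can be taken as non-binding.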
# [2] = test system: Neu5Ac(a2-3)Gal(b1-4)GlcNAc(b1-2)Man
# Outline: as §1
# [3] = test system: Neu5Ac(a2-3)Gal(b1-4)GlcNAc(b1-3)Gal(b1-4)GlcNAc(b1-3)Gal(b1-4)GlcNAc
# Outline: as §1
# [4] = test system: Neu5Ac(a2-3)Gal(b1-3)GlcNAc
# Outline: as §1
# [5] = test system: Neu5Ac(a2-3)Gal(b1-3)[Neu5Ac(a2-6)]GlcNAc(b1-3)[Fuc(a1-3)[Gal(b1-4)]GlcNAc(b1-6)]Gal(b1-4)Glc
# Outline: as §1
# [6] = test system: Neu5Ac(a2-3)Gal(b1-4)GlcNAc(b1-3)Gal(b1-4)GlcNAc(b1-6)[Gal(b1-3)]GalNAc
# Outline: as §1
# [7] = test system: Neu5Ac(a2-3)Gal(b1-4)GlcNAc(b1-2)[Neu5Ac(a2-3)Gal(b1-4)GlcNAc(b1-6)]Man(a1-6)[Neu5Ac(a2-3)Gal(b1-4)GlcNAc(b1-2)Man(a1-3)][GlcNAc(b1-4)]Man(b1-4)GlcNAc(b1-4)GlcNAc
# Outline: as §1
# [8] = test system: Neu5Ac(a2-3)Gal(b1-4)GlcNAc(b1-3)Gal(b1-4)GlcNAc(b1-3)[Neu5Ac(a2-3)Gal(b1-4)GlcNAc(b1-3)Gal(b1-4)GlcNAc(b1-6)]GalNAc
# Outline: as §1
# [9] = test system: Neu5Ac(a2-3)Gal(b1-3)GlcNAc(b1-3)Gal(b1-3)GlcNAc
# Outline: as §1
# [10] = test system: Neu5Ac(a2-3)Gal(b1-3)[Fuc(a1-4)]GlcNAc(b1-3)Gal(b1-4)[Fuc(a1-3)]GlcNAc
# Outline: as §1
# [11] = test system: Neu5Ac(a2-3)Gal(b1-4)GlcNAc(b1-2)Man(a1-3)[Neu5Ac(a2-3)Gal(b1-4)GlcNAc(b1-2)Man(a1-6)]Man(b1-4)GlcNAc(b1-4)[Fuc(a1-6)]GlcNAc
# Outline: as §1
# [12] = test system: Neu5Ac(a2-3)Gal(b1-4)GlcNAc(b1-3)Gal(b1-3)GlcNAc
# Outline: as §1
# [13] = test system: Neu5Ac(a2-3)Gal(b1-4)GlcNAc(b1-3)Gal(b1-4)GlcNAc(b1-2)Man(a1-3)[Neu5Ac(a2-3)Gal(b1-4)GlcNAc(b1-3)Gal(b1-4)GlcNAc(b1-2)Man(a1-6)]Man(b1-4)GlcNAc(b1-4)GlcNAc
# Outline: as §1
# [14] = test system: Neu5Ac(a2-3)Gal(b1-3)[Neu5Ac(a2-3)Gal(b1-4)]GlcNAc
# Outline: as §1
# [15] = test system: Neu5Ac(a2-3)Gal(b1-4)GlcNAc(b1-2)Man(a1-3)[GlcNAc(b1-2)Man(b1-4)GlcNAc(b1-2)Man(a1-6)]Man(b1-4)GlcNAc(b1-4)GlcNAc
# Outline: as §1
# [16] = test system: Neu5Ac(a2-3)Gal(b1-3)GlcNAc6S
# Outline: as §1
# [17] = test system: Neu5Ac(a2-3)Gal(b1-4)GlcNAc(b1-2)Man(a1-3)[Neu5Ac(a2-6)Gal(b1-4)GlcNAc(b1-2)Man(a1-6)]Man(b1-4)GlcNAc(b1-4)GlcNAc
# Outline: as §1
# [18] = test system: Neu5Ac(a2-3)Gal(b1-3)GlcNAc(b1-3)Gal(b1-4)GlcNAc
# Outline: as §1
# [19] = test system: Neu5Ac(a2-3)Gal(b1-3)[Fuc(a1-4)]GlcNAc
# Outline: as §1
# [20] = test system: Neu5Ac(a2-3)Gal(b1-3)[Neu5Ac(a2-6)]GalNAc
# Outline: as §1
substance,measurement,setting,value
FGF2 (chain not printed),glycan array binding signal (z-score),[1],0.022
same,glycan array binding signal (z-score),[2],3.69
same,glycan array binding signal (z-score),[3],0.008
Thrombomodulin Extracellular (Homo sapiens) (chain not printed),glycan array binding signal (z-score),[4],-0.035
same,glycan array binding signal (z-score),[5],-0.554
same,glycan array binding signal (z-score),[6],-0.089
Gal 3 (Homo sapiens) (chain not printed),glycan array binding signal (z-score),[7],-0.198
same,glycan array binding signal (z-score),[8],-0.033
STIM-3 (Mus musculus) (chain not printed),glycan array binding signal (z-score),[9],-0.441
same,glycan array binding signal (z-score),[10],4.34
Meso764 (Homo sapiens) (chain not printed),glycan array binding signal (z-score),[4],-0.042
same,glycan array binding signal (z-score),[11],0.133
same,glycan array binding signal (z-score),[12],-0.729
same,glycan array binding signal (z-score),[13],-0.377
NCAM1 (Homo sapiens) (chain not printed),glycan array binding signal (z-score),[14],-0.513
M-Ficolin G221F A256V (Homo sapiens) (chain not printed),glycan array binding signal (z-score),[3],4.51
Galectin-8 C-terminal CRD (Homo sapiens) (chain not printed),glycan array binding signal (z-score),[4],0.344
same,glycan array binding signal (z-score),[3],0.656
Serum Amyloid P component (Homo sapiens) (chain not printed),glycan array binding signal (z-score),[9],1.67
M-Ficolin G221F (Homo sapiens) (chain not printed),glycan array binding signal (z-score),[1],-0.159
M-Ficolin (Homo sapiens) (chain not printed),glycan array binding signal (z-score),[15],4.98
M-Ficolin Y271F (Homo sapiens) (chain not printed),glycan array binding signal (z-score),[16],2.94
same,glycan array binding signal (z-score),[17],-0.548
Gal 8-short (Homo sapiens) (chain not printed),glycan array binding signal (z-score),[9],1.59
VWF (Homo sapiens) (chain not printed),glycan array binding signal (z-score),[4],0.013
Gal 8 long (Homo sapiens) (chain not printed),glycan array binding signal (z-score),[16],4.87
same,glycan array binding signal (z-score),[3],0.976
Angiogenin (Homo sapiens) (chain not printed),glycan array binding signal (z-score),[18],-1.54
same,glycan array binding signal (z-score),[10],-0.178
same,glycan array binding signal (z-score),[19],-1.28
same,glycan array binding signal (z-score),[3],-1.19
H-Ficolin (Homo sapiens) (chain not printed),glycan array binding signal (z-score),[15],-0.25
same,glycan array binding signal (z-score),[12],0.316
M-Ficolin A256V (Homo sapiens) (chain not printed),glycan array binding signal (z-score),[18],-0.149
same,glycan array binding signal (z-score),[19],-0.176
same,glycan array binding signal (z-score),[20],-0.136
same,glycan array binding signal (z-score),[15],3.48
same,glycan array binding signal (z-score),[17],-0.088
same,glycan array binding signal (z-score),[12],-0.123
